Reference: the supplement of paper PMC4967469
By IC50 is meant the dose at which the fit gives 50% viability; a limit (>, <) means that the fit lies beyond the doses tested. AUC is the area under the same curve over the 256-fold range up to the top dose, as a fraction; values near 1 show little effect. For some assays here: A top dose marked as inferred comes from the curve model; the source does not state it. For some assays here: An entry number marks a drug with two screens in the source, which often give different values.

Key:
Test in all cases: Viability of human cancer cell lines after 72 h of drug (GDSC screen)
[1] = compound: Fc1cc(-c2ccnc(Nc3ccc(-n4cnc(N5CCOCC5)n4)cc3)n2)cc(N2CCOCC2)c1 [JNK-9L]; settings: top dose 5.12 µM; top dose inferred
Procedure: (§1)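 Human cancer cell lines in 384-well plates, medium with 10% serum, drug for 72 h over a 256-fold dose range (nine 2-fold or five 4-fold steps up to the top dose). Adherent lines were fixed and stained with the nucleic acid dye Syto60, suspension lines read with resazurin; signal relative to control wells, capped at 0 and 100%. One two-parameter sigmoid per drug and line, fitted in a mixed model over all curves with the slope shared within a line.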

[2] = compound: C#Cc1cccc(Nc2ncnc3cc(OC)c(OCCCCCCC(=O)NO)cc23)c1 [CUDC-101]; settings: top dose 5.12 µM; top dose inferred
Procedure: as §1

[3] = compound: O=c1[nH]cc(F)c(=O)[nH]1 [5-Fluorouracil]; settings: top dose 32 µM; top dose inferred
Procedure: as §1

[4] = compound: OC[C@H](Cc1ccccc1)Nc1nc(Oc2ccc3c(c2)CCC3)nc2c1ncn2Cc1ccc(-c2ccccc2)cc1 [QS11]; settings: top dose 10.24 µM
Procedure: as §1

[5] = compound: NCC(=O)Nc1ccc(-n2nc(C(F)(F)F)cc2-c2ccc3c(ccc4ccccc43)c2)cc1 [OSU-03012]; settings: top dose 16 µM; top dose inferred
Procedure: as §1

[6] = compound: CC(C)(C)c1cc(NC(=O)Nc2ccc(-c3cn4c(n3)sc3cc(OCCN5CCOCC5)ccc34)cc2)no1 [AC220]; settings: top dose 1.024 µM; top dose inferred
Procedure: as §1

[7] = compound: COc1cc(F)c(F)c(Nc2ccc(I)cc2F)c1NS(=O)(=O)C1(C[C@H](O)CO)CC1 [RDEA119]; settings: top dose 5 µM, top dose inferred
Procedure: as §1

| Cell Line | AUC [1] | IC50 [1] [µM] | AUC [2] | IC50 [2] [µM] | AUC [3] | IC50 [3] [µM] | AUC [4] | IC50 [4] [µM] | AUC [5] | IC50 [5] [µM] | AUC [6] | IC50 [6] [µM] | AUC ([7]; screen: GDSC drug entry 1014) | IC50 ([7]; screen: GDSC drug entry 1014) [µM] | AUC ([7]; screen: GDSC drug entry 1526) | IC50 ([7]; screen: GDSC drug entry 1526) [µM] |
| --- | --- | --- | --- | --- | --- | --- | --- | --- | --- | --- | --- | --- | --- | --- | --- | --- |
| JM1 (B-cell lymphoma, suspension) | 0.558 | 0.451 | 0.238 | 0.0645 | 0.852 | 19.5 | 0.902 | 10 | 0.674 | 2.83 | 0.99 | > 1.02 | 0.991 | > 5 | 0.989 | > 5 |
| JSC-1 (B-cell lymphoma, suspension) | 0.585 | 0.546 | 0.161 | 0.0298 | 0.19 | 0.24 | 0.882 | > 10.2 | 0.691 | 3.4 | 0.934 | > 1.02 | 0.758 | 1.72 | – | – |
| JURL-MK1 (chronic myeloid leukaemia, suspension) | 0.646 | 0.81 | 0.646 | 0.812 | 0.593 | 3.6 | 0.863 | 8.82 | 0.818 | 8.94 | 0.961 | > 1.02 | 0.197 | 0.0396 | 0.609 | 0.623 |
| JVM-2 (lymphoid neoplasm, suspension) | 0.8 | 3.15 | 0.792 | 2.94 | 0.618 | 4.56 | 0.972 | > 10.2 | 0.857 | > 16 | 0.98 | > 1.02 | 0.928 | > 5 | 0.9 | > 5 |
| JVM-3 (lymphoid neoplasm, suspension) | 0.817 | 2.91 | 0.513 | 0.347 | 0.767 | 12.1 | 0.987 | > 10.2 | 0.869 | 15.2 | 0.985 | > 1.02 | 0.861 | 4.34 | 0.888 | > 5 |
| JiyoyeP-2003 (Burkitt lymphoma, suspension) | 0.524 | 0.368 | 0.333 | 0.117 | 0.603 | 3.69 | 0.963 | > 10.2 | 0.755 | 4.85 | 0.991 | > 1.02 | 0.99 | > 5 | 0.989 | > 5 |
| K2 (melanoma, adherent) | 0.624 | 0.777 | 0.701 | 1.41 | 0.975 | > 32 | 0.971 | > 10.2 | 0.832 | 14.7 | 0.969 | > 1.02 | 0.602 | 0.648 | 0.294 | 0.0683 |
| K5 (thyroid, adherent) | 0.613 | 0.645 | 0.617 | 0.659 | 0.923 | > 32 | 0.937 | > 10.2 | 0.827 | 9.22 | 0.988 | > 1.02 | – | – | 0.302 | 0.0891 |
| KALS-1 (glioma, adherent) | 0.592 | 0.628 | 0.62 | 0.773 | 0.847 | > 32 | 0.841 | > 10.2 | 0.797 | 11 | 0.976 | > 1.02 | – | – | 0.722 | 1.71 |
| KARPAS-45 (lymphoblastic leukaemia, suspension) | 0.588 | 0.533 | 0.228 | 0.0618 | 0.864 | 20.7 | 0.896 | 8.86 | 0.724 | 3.78 | 0.958 | > 1.02 | 0.946 | > 5 | 0.99 | > 5 |
| KARPAS-299 (anaplastic large cell lymphoma, suspension) | 0.574 | 0.49 | 0.473 | 0.274 | 0.264 | 0.491 | 0.981 | > 10.2 | 0.759 | 4.75 | 0.988 | > 1.02 | 0.972 | > 5 | 0.967 | > 5 |
| KARPAS-422 (B-cell lymphoma, suspension) | 0.538 | – | 0.507 | 0.334 | 0.864 | 27.3 | 0.801 | – | 0.669 | 2.94 | 0.982 | > 1.02 | 0.969 | > 5 | 0.982 | > 5 |
| KARPAS-620 (haematopoietic neoplasm, suspension) | 0.541 | 0.406 | 0.294 | 0.0927 | 0.665 | 5.34 | 0.731 | 2.59 | 0.702 | 3.36 | 0.979 | > 1.02 | 0.857 | 3.19 | 0.616 | 0.621 |
| KE-37 (lymphoblastic leukaemia, suspension) | 0.459 | 0.254 | 0.337 | 0.127 | 0.62 | 3.93 | 0.871 | 5.97 | 0.5 | 1 | 0.979 | > 1.02 | 0.977 | > 5 | 0.994 | > 5 |
| KELLY (neuroblastoma, adherent) | 0.647 | 0.785 | 0.431 | 0.211 | 0.376 | 0.941 | 0.954 | > 10.2 | 0.812 | 7.61 | 0.989 | > 1.02 | 0.72 | 1.22 | 0.91 | > 5 |
| KGN (ovary, adherent) | 0.541 | 0.425 | 0.503 | 0.328 | 0.529 | 2.45 | 0.926 | > 10.2 | 0.717 | 4.77 | 0.963 | > 1.02 | 0.747 | 1.89 | 0.882 | > 5 |
| KINGS-1 (glioma, adherent) | 0.845 | > 5.12 | 0.501 | 0.322 | 0.846 | > 32 | 0.978 | > 10.2 | 0.867 | > 16 | 0.977 | > 1.02 | 0.74 | 2.01 | 0.891 | > 5 |
| KLE (endometrium, adherent) | 0.719 | 1.93 | 0.56 | 0.509 | 0.879 | > 32 | 0.969 | > 10.2 | 0.844 | > 16 | 0.974 | > 1.02 | 0.919 | > 5 | 0.927 | > 5 |
| KM-H2 (Hodgkin lymphoma, suspension) | 0.738 | – | 0.983 | > 5.12 | 0.991 | > 32 | 0.991 | > 10.2 | 0.85 | 9.4 | 0.974 | > 1.02 | 0.993 | > 5 | 0.99 | > 5 |
| KMH-2 (thyroid, adherent) | 0.404 | 0.18 | 0.932 | > 5.12 | 0.981 | > 32 | 0.753 | 3.09 | 0.719 | 3.85 | 0.989 | > 1.02 | 0.187 | 0.0415 | 0.413 | 0.186 |
| KMOE-2 (acute myeloid leukaemia, suspension) | 0.636 | 0.727 | 0.486 | 0.295 | 0.819 | 15.7 | 0.948 | > 10.2 | 0.864 | 11.6 | 0.88 | 0.86 | 0.157 | 0.0327 | 0.304 | 0.0942 |
| KMRC-1 (kidney, adherent) | 0.595 | 0.594 | 0.597 | 0.601 | 0.977 | > 32 | 0.987 | > 10.2 | 0.792 | 7.77 | 0.987 | > 1.02 | 0.841 | 3.79 | 0.815 | 2.97 |
| KNS-42 (glioma, adherent) | 0.693 | 1.25 | 0.657 | 0.953 | 0.917 | > 32 | 0.943 | > 10.2 | 0.828 | 12.6 | 0.971 | > 1.02 | 0.943 | > 5 | 0.961 | > 5 |
| KNS-81-FD (glioma, adherent) | 0.823 | 4.57 | 0.607 | 0.698 | 0.858 | > 32 | 0.966 | > 10.2 | 0.866 | > 16 | 0.969 | > 1.02 | 0.75 | 2.16 | 0.821 | 4.37 |
| KON (head and neck, adherent) | 0.471 | 0.267 | 0.899 | > 5.12 | 0.984 | > 32 | 0.857 | 8.02 | 0.631 | 2.28 | 0.986 | > 1.02 | 0.759 | 1.71 | 0.828 | 2.99 |
| KOPN-8 (B-cell leukaemia, suspension) | 0.579 | 0.508 | 0.165 | 0.0379 | 0.512 | 2.14 | 0.861 | 6.76 | 0.651 | 2.45 | 0.936 | > 1.02 | 0.663 | 0.825 | 0.967 | > 5 |
| KOSC-2 (head and neck, adherent) | 0.695 | 1.16 | 0.455 | 0.24 | 0.959 | > 32 | 0.985 | > 10.2 | 0.757 | 5.73 | 0.985 | > 1.02 | – | – | 0.79 | 2.33 |
| KP-2 (pancreas, adherent) | 0.685 | 1.1 | 0.665 | 0.962 | 0.974 | > 32 | 0.986 | > 10.2 | 0.644 | 2.59 | 0.986 | > 1.02 | 0.436 | 0.206 | 0.618 | 0.679 |
